Data taken from PubChem BioAssay AID686979 (National Center for Advancing Translational Sciences (NCATS), 2013).
Values joined by “and” are separate entries in the source; they are usually repeats but may differ in a detail not shown here. Equal entries are not always repeated. Out of some 420,000 compounds screened, about 50,000 (12%) were called active. The inconclusive results got no clear call from the source; some entries with a clear call stand among them for comparison. Calls follow the shape of the dose curve; as a rule, active = well fitted inhibition curve with a large enough effect; inconclusive = small, poorly fitted or top-dose-only effect; inactive = flat fitted curve, though single readings scatter. Where the call is inconclusive, the potency comes from a doubtful curve fit.

Experiment: qHTS for Inhibitors of human tyrosyl-DNA phosphodiesterase 1 (TDP1): qHTS in cells in presence of CPT; also: nearly all actives have a fitted effect of over 55% in size
Conditions: chicken DT40 Tdp1-/-;hTDP1 cells + 20 nM CPT, ATP luminescence, 48 h; series mostly up to 46.2 µM
Method in brief: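 Cell growth measured by CellTiter-Glo luminescence after a minimum 48 h, 37 C compound exposure with 20 nM CPT in Tdp1-knockout DT40 cells stably expressing hTDP1, seeded 400/well; qHTS titration format.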
Potency is read from the fitted curve at half-maximal effect; tags tell the direction and shape of the fitted curve.

Row | Compound | Potency
1 | COc1ccc(C)cc1NC(=O)CN1CCN(S(=O)(=O)c2ccc(C(C)C)cc2)CC1 | inconclusive: 23.1 µM [inhibitor, single point]
2 | Cc1ccc(C(=O)N/C(=C/c2cn(-c3ccccc3)nc2-c2ccccc2)C(=O)O)cc1 | inactive
3 | Cc1ccc(SC[C@H](Cc2ccccc2)N2CCN(C)CCC2=O)cc1 | inconclusive: 29.1 µM [inhibitor, single point]
4 | CC(C(=O)N1CCC(C(N)=O)CC1)N(c1ccc(Oc2ccccc2)cc1)S(C)(=O)=O (centres undefined) | inconclusive: 12.6 µM [inhibitor, partial curve, poor fit]
5 | COC(=O)C1=C(C(=O)OC)[C@@H]2N(Cc3ccccc3)c3ccccc3[C@@]23C[C@@H](C(=O)OC)N(C(=O)c2cc(C)oc2C)C3=N1 | active: 23.1 µM
6 | COc1ccc2sc(N(Cc3cccnc3)C(=O)c3cccs3)nc2c1 | active: 20.6 µM
7 | N=C(N)c1ccc(OCCCCCOc2ccc(C(=N)N)cc2)cc1 | active: 2.91 µM and active: 2.37 µM and active: 1.84 µM
8 | Cc1ccc2c(c1)C(c1ccccc1)N(C(=O)c1ccc(S(=O)(=O)N3CCCC3)cc1)CC(=O)N2 (centres undefined) | inconclusive: 20.6 µM [inhibitor, single point]
9 | Cc1nn(-c2ccccc2)c(N2CCCC2)c1/C=N/NC(=S)Nc1ccccc1C(F)(F)F | inconclusive: 23.1 µM [inhibitor, single point]
10 | CCOC(=O)c1c(C)[nH]c(C)c1S(=O)(=O)N1CCN(c2cccc(C)c2)C(C)C1 (centres undefined) | inconclusive: 18.4 µM [inhibitor, single point]
11 | C[C@H](CO)N1C[C@H](C)[C@@H](CN(C)C(=O)Nc2ccc(C(F)(F)F)cc2)Oc2ccc(NC(=O)Nc3ccc(C(F)(F)F)cc3)cc2C1=O | inconclusive: 29.1 µM [inhibitor, single point]
12 | O=C(OC[C@H]1O[C@@H](OC(=O)c2cc(O)c(O)c(OC(=O)c3cc(O)c(O)c(O)c3)c2)[C@H](OC(=O)c2cc(O)c(O)c(OC(=O)c3cc(O)c(O)c(O)c3)c2)[C@@H](OC(=O)c2cc(O)c(O)c(OC(=O)c3cc(O)c(O)c(O)c3)c2)[C@@H]1OC(=O)c1cc(O)c(O)c(OC(=O)c2cc(O)c(O)c(O)c2)c1)c1cc(O)c(O)c(OC(=O)c2cc(O)c(O)c(O)c2)c1 | active: 11.2 µM and active: 4.22 µM
13 | CCCCN(C)C(=O)c1oc2ccc(S(=O)(=O)N3CCCCCC3)cc2c1C | active: 18.4 µM
14 | Cc1ccc(-n2ncc3c(NC4CCCC4)ncnc32)cc1 | inconclusive: 16.4 µM [inhibitor, single point]
15 | CCOC(=O)/C(C#N)=C/c1ccc(-c2ccccc2)o1 | inactive
16 | COc1ccc(-c2nn(-c3ccccc3)cc2C(=O)Nc2nc(CC(C)=O)ns2)cc1 | inconclusive: 23.1 µM [inhibitor, single point]
17 | CCCCCCCNC(=O)C1(CC2CC(c3cccc(Br)c3)=NO2)CCN(C(=O)CCCCCBr)CC1 (centres undefined) | active: 23.1 µM
18 | COCCNC(=O)c1onc(CS(=O)(=O)c2cc(C)cc(C)c2)c1C(=O)NCCOC | inactive
19 | CCN(CC1CCCN(CCc2cccc(F)c2)C1)C(=O)c1ccoc1C (centres undefined) | inactive
20 | COc1ccc2sc(N(Cc3cccnc3)C(=O)C3COc4ccccc4O3)nc2c1 (centres undefined) | inconclusive: 29.1 µM [inhibitor, single point]
21 | Cc1cc(NC(=O)CSc2ccc(-c3nc4cc(C)c(C)cc4[nH]3)cn2)no1 | inconclusive: 29.1 µM [inhibitor, partial curve, poor fit]
22 | CCCC(=O)NC(c1ccc(C(C)C)cc1)c1ccc2cccnc2c1O (centres undefined) | active: 5.17 µM

Row | Compound | Potency
23 | Cc1ccc(NC(=O)c2cccc(Cl)c2)nc1 | inactive
24 | Cc1ccc(-n2c(=O)c(C#N)cc3c(=O)n4ccccc4nc32)cc1C | inconclusive: 29.1 µM [inhibitor, single point]
25 | CC(Nc1nc(-c2ccc(F)cc2)cs1)c1nc2cc(Cl)c(Cl)cc2n1CCCO (centres undefined) | inconclusive: 20.6 µM [inhibitor, single point]
26 | Cc1ccc(NN=C2c3ccccc3-c3ccccc32)cc1 | inconclusive: 20.6 µM [inhibitor, partial curve]
27 | FC(F)(F)c1ccc(N2CCOCC2)c(Nc2nc3ccccc3n3cnnc23)c1 | inconclusive: 35.5 µM [inhibitor, partial curve, poor fit]
28 | Cc1nn(Cc2ccc(C(=O)Nc3ccccc3C(F)(F)F)o2)c(C)c1Br | inconclusive: 16.4 µM [inhibitor, single point]
29 | CC1CN(C(=O)c2ccc(COc3ccccc3Cl)o2)CC(C)O1 (centres undefined) | inactive
30 | O=C(CN1CCC(C(=O)c2ccc3c(c2)OCCO3)CC1)NCc1ccc(F)cc1 | inactive
31 | CSCCC(C(=O)Nc1c(C)cccc1C)n1c(-c2ccc(-c3ccccc3)cc2)nc2ccccc21 (centres undefined) | active: 10.3 µM
32 | O=C(NCC1(N2CCCCC2)CCCCC1)c1cccc(S(=O)(=O)Nc2ccc(F)cc2)c1 | inconclusive: 29.1 µM [inhibitor, partial curve, poor fit]
33 | COc1ccc(CN2CCC(N(CCc3ccccc3)Cc3ccccc3)CC2)c(OC)c1 | active: 23.1 µM
34 | CCC(Sc1n[nH]c(=O)[nH]c1=O)C(=O)OCc1ccccc1 (centres undefined) | inactive
35 | COc1cccc(N2CCN(CC(=O)Nc3ccc(S(=O)(=O)N4CCCCCC4)cc3)CC2)c1 | inconclusive: 29.1 µM [inhibitor, single point]
36 | CC1CCCCC12NC(=O)N(CC(=O)NCCc1ccc(F)cc1)C2=O (centres undefined) | inactive
37 | COc1ccc(OC)c(C(=O)CSc2nc3ncccc3[nH]2)c1 | inconclusive: 14.6 µM [inhibitor, partial curve]
38 | COc1cc2c(NC3CCN(C)CC3)nc(N3CCCN(C)CC3)nc2cc1OCCCCCCN(C)C | active: 15.8 µM
39 | CC[C@@H]1[C@H]2CCCC(=O)N3CC[C@@H](C[C@@H]1Nc1ccccc1)[C@@H]23 | inconclusive: 25.1 µM [inhibitor, single point] and inconclusive: 29.1 µM [inhibitor, single point]
40 | CCC(C)NCCCOc1ccc(C)cc1OC (centres undefined) | inactive
41 | CC(C)CC(N)c1csc(Nc2cc(Oc3ccccc3)ncn2)n1 (centres undefined) | active: 23.1 µM
42 | COc1cc(F)ccc1-c1cc(C(=O)Nc2cc(OC)c(OC)c(OC)c2)[nH]n1 | inconclusive: 25.9 µM [inhibitor, single point]
43 | Cc1ccc(CCNC(=O)c2nn(C)c3c2CS(=O)(=O)c2ccccc2-3)cc1 | inconclusive: 29.1 µM [inhibitor, single point]
44 | O=C(Nc1ccc2nc(SCCOc3ccccc3Cl)sc2c1)c1ccco1 | inconclusive: 20.6 µM [inhibitor, single point]

Row | Compound | Potency
45 | COC(=O)c1ccc2nc(-c3cccc(Br)c3)c(Cc3ccccc3OC)n2c1 | inconclusive: 18.4 µM [inhibitor, single point]
46 | O=c1oc2c(CN3CCCCC3)c(O)ccc2cc1-c1nc2ccccc2[nH]1 | inactive
47 | CCc1cccc(NC(=O)CSc2n[nH]c(-c3ccccc3Cl)n2)c1 | inconclusive: 6.51 µM [inhibitor, partial curve]
48 | CC(C)OC(=O)c1c(NS(=O)(=O)c2ccccc2)sc2c1CCCC2 | active: 6.51 µM
49 | Cc1ccc(Cn2cc(SCC(=O)Nc3nccs3)c3ccccc32)cc1 | inconclusive: 29.1 µM [inhibitor, single point]
50 | Cc1noc(C)c1S(=O)(=O)Nc1cccc(CO)c1 | inactive
51 | Cc1ccc(C2NC(c3ccc4c(c3)OCO4)=CC(c3cc(Br)ccc3O)N2)cc1 (centres undefined) | active: 7.94 µM
52 | COc1ccc(CCNC(=O)C2CCN(C(=O)c3ccc(C(C)(C)C)cc3)CC2)cc1OC | inconclusive: 29.1 µM [inhibitor, single point]
53 | O=C(c1cccs1)N1CCC(c2nc3c(nnn3Cc3ccccc3Cl)c(=O)[nH]2)CC1 | inactive
54 | [N-]=C=C1C(=S)NC(=O)[C@H]([n+]2ccccc2)[C@H]1c1ccc(Cl)cc1 | inactive
55 | COc1ccc(-n2c(SCC(=O)Nc3nccs3)nc3c(c2=O)SC(C)C3)cc1 (centres undefined) | inconclusive: 29.1 µM [inhibitor, single point]
56 | O=C(NC1CCCCC1)C(c1ccnc2ccccc12)N1CCc2ccccc2C1 (centres undefined) | inconclusive: 10.3 µM [inhibitor, partial curve, poor fit]
57 | Cc1cc(C)c(S(=O)(=O)/N=C2\C=C(Nc3ccc(C(=O)O)cc3)C(=O)c3ccccc32)c(C)c1 | active: 3.66 µM
58 | c1ccc(-c2cc3nccc(-c4ccccn4)n3n2)cc1 | inactive
59 | COc1cccc(CN2CCC2(C)C(=O)Nc2ccc(C)cc2)c1F (centres undefined) | active: 16.4 µM
60 | CS(=O)(=O)c1ccc(-c2cccc(NC(=O)c3ccc4c(c3)OCO4)c2)nn1 | inconclusive: 32.6 µM [inhibitor, single point]
61 | CCOc1ccc(CCNC(=O)Cn2ccc3cc(S(=O)(=O)N4CCCC4)ccc32)cc1 | inconclusive: 16.4 µM [inhibitor, single point]
62 | CN(CC1CCOCC1)C(=O)CC1C(=O)NCCN1Cc1ccc(F)c(F)c1 (centres undefined) | inactive
63 | COc1ccc(-c2csc(NCCc3nc4cc(C(=O)NCCCO)ccc4n3Cc3ccc(C)cc3)n2)cc1 | inconclusive: 18.4 µM [inhibitor, single point]
64 | Cc1nc2c(sc(=S)n2Cc2ccco2)c(=O)n1CC(=O)Nc1ccccc1 | inconclusive: 20.6 µM [inhibitor, single point]
